Measured values as given in a collection of fitness landscapes (doi:10.1126/science.1257360).
This is one part of the list.

B1: PhoQ; a variant is named by its letters at X, in order, P23837 (parent)
chain: MKKLLRLFFPLSLRVRFLLATAAVVLVLSLAYGMVALIGYSVSFDKTTFRLLRGESNLFYTLAKWENNKLHVELPENIDKQSPTMTLIYDENGQLLWAQRDVPWLMKMIQPDWLKSNGFHEIEADVNDTSLLLSGDHSIQQQLQEVREDDDDAEMTHSVAVNVYPATSRMPKLTIVVVDTIPVELKSSYMVWSWFIYVLSANLLLVIPLLWVAAWWSLRPIEALAKEVRELEEHNRELLNPATTRELTSLVRNLNRLLKSERERYDKYRTTLTDLTHSLKTPLXXLQXXLRSLRSEKMSVSDAEPVMLEQISRISQQIGYYLHRASMRGGTLLSRELHPVAPLLDNLTSALNKVYQRKGVNISLDISPEISFVGEQNDFVEVMGNVLDNACKYCLEFVEISARQTDEHLYIVVEDDGPGIPLSKREVIFDRGQRVDTLRPGQGVGLAVAREITEQYEGKIVAGESMLGGARMEVIFGRQHSAPKDE

Variants of: B1
Assay: enrichment ratio after two sorts for PhoP signalling (ratio (wild type AVST 3.29)); higher = more functional
Details: with PhoP (E. coli)

Row | Variant | enrichment ratio
1 | MNWC | 11.8
2 | RFRM | ≤ 0.25
3 | YMKE | ≤ 0.25
4 | IHDY | ≤ 0.25
5 | YLLD | ≤ 0.25
6 | INYP | ≤ 0.25
7 | VDRF | ≤ 0.25
8 | FAFW | ≤ 0.25
9 | YLCT | 1.05
10 | PMLS | ≤ 0.25
11 | KHVD | ≤ 0.25
12 | VRNT | ≤ 0.25
13 | AYAM | 0.252
14 | RYPG | ≤ 0.25
15 | KSHC | ≤ 0.25
16 | PNVP | ≤ 0.25
17 | HTLA | ≤ 0.25
18 | YNKG | ≤ 0.25
19 | SVSW | 4.86
20 | WMWW | ≤ 0.25
21 | TDSN | 4.25
22 | RKRP | ≤ 0.25
23 | MNNL | 0.29
24 | FART | ≤ 0.25

Row | Variant | enrichment ratio
25 | IDSI | ≤ 0.25
26 | MTSP | ≤ 0.25
27 | ELLH | ≤ 0.25
28 | FQNQ | ≤ 0.25
29 | KSIW | ≤ 0.25
30 | ERRS | ≤ 0.25
31 | YWLI | ≤ 0.25
32 | FRHC | ≤ 0.25
33 | VLFQ | ≤ 0.25
34 | MVHK | ≤ 0.25
35 | AYYG | ≤ 0.25
36 | EMHK | ≤ 0.25
37 | NIQS | ≤ 0.25
38 | YNQP | ≤ 0.25
39 | HRLV | ≤ 0.25
40 | FLKR | ≤ 0.25
41 | KVCF | ≤ 0.25
42 | PLVH | ≤ 0.25
43 | WNQG | ≤ 0.25
44 | SATH | 7.36
45 | AMAG | 3.29
46 | SFAI | ≤ 0.25
47 | THTE | ≤ 0.25
48 | FTVT | ≤ 0.25

Row | Variant | enrichment ratio
49 | IGHR | ≤ 0.25
50 | MLHN | ≤ 0.25
51 | NLAP | ≤ 0.25
52 | VAKE | ≤ 0.25
53 | EGHE | ≤ 0.25
54 | YARW | ≤ 0.25
55 | AFMS | ≤ 0.25
56 | QMTL | ≤ 0.25
57 | VPFT | ≤ 0.25
58 | VRKW | ≤ 0.25
59 | EDGN | ≤ 0.25
60 | TNSC | 17.3
61 | IRVC | ≤ 0.25
62 | ANGG | ≤ 0.25
63 | KKDR | ≤ 0.25
64 | PSVF | ≤ 0.25
65 | GMVT | ≤ 0.25
66 | DDYV | ≤ 0.25
67 | QLWN | ≤ 0.25
68 | YWNT | ≤ 0.25
69 | VGID | ≤ 0.25
70 | QCKY | ≤ 0.25
71 | KYAW | ≤ 0.25
72 | LQPK | ≤ 0.25

Row | Variant | enrichment ratio
73 | GKAN | ≤ 0.25
74 | RKDR | ≤ 0.25
75 | LRQM | ≤ 0.25
76 | NETF | ≤ 0.25
77 | DWYS | ≤ 0.25
78 | KPKL | ≤ 0.25
79 | DLNK | ≤ 0.25
80 | IWSL | ≤ 0.25
81 | RKPL | ≤ 0.25
82 | ATFS | ≤ 0.25
83 | MCSE | ≤ 0.25
84 | TVSY | 10.4
85 | DKSM | ≤ 0.25
86 | IQRT | ≤ 0.25
87 | QFST | ≤ 0.25
88 | WEKF | ≤ 0.25
89 | NAPY | ≤ 0.25
90 | PDRR | ≤ 0.25
91 | LHSW | ≤ 0.25
92 | VIVK | ≤ 0.25
93 | MTFR | ≤ 0.25
94 | KRTS | ≤ 0.25
95 | VESS | 0.375
96 | FDLF | ≤ 0.25

Row | Variant | enrichment ratio
97 | GKGG | ≤ 0.25
98 | GSWF | ≤ 0.25
99 | GFEW | ≤ 0.25
100 | HQNE | ≤ 0.25
101 | NTGY | ≤ 0.25
102 | SHYT | ≤ 0.25
103 | QPFL | ≤ 0.25
104 | DCKD | ≤ 0.25
105 | GLSH | ≤ 0.25
106 | TWRQ | ≤ 0.25
107 | LNHD | ≤ 0.25
108 | QTHK | ≤ 0.25
109 | EQHY | ≤ 0.25
110 | RSFD | ≤ 0.25
111 | PPAE | ≤ 0.25
112 | PMKK | ≤ 0.25
113 | AKKI | ≤ 0.25
114 | TTVR | ≤ 0.25
115 | NYIE | ≤ 0.25
116 | AHNV | ≤ 0.25
117 | PQYK | ≤ 0.25
118 | DEVN | ≤ 0.25
119 | AIRL | ≤ 0.25
120 | TAQE | 1.65

Row | Variant | enrichment ratio
121 | KIWN | ≤ 0.25
122 | MVMV | ≤ 0.25
123 | VKAT | ≤ 0.25
124 | QIEW | ≤ 0.25
125 | QDFA | ≤ 0.25
126 | LNVH | ≤ 0.25
127 | FFQD | ≤ 0.25
128 | VAQH | ≤ 0.25
129 | YSCH | ≤ 0.25
130 | FMHF | ≤ 0.25
131 | YSYH | ≤ 0.25
132 | HDKV | ≤ 0.25
133 | PCPK | 1.24
134 | SNMM | 10.6
135 | WFRW | ≤ 0.25
136 | EQSP | ≤ 0.25
137 | HNDG | ≤ 0.25
138 | GCYH | ≤ 0.25
139 | KKCV | ≤ 0.25
140 | LPWA | ≤ 0.25
141 | SRNT | ≤ 0.25
142 | WFLW | ≤ 0.25
143 | YVAI | ≤ 0.25
144 | KANL | ≤ 0.25

Row | Variant | enrichment ratio
145 | AGMR | ≤ 0.25
146 | RLYV | ≤ 0.25
147 | TTLM | 16.5
148 | EMHP | ≤ 0.25
149 | VDYR | ≤ 0.25
150 | KMEY | ≤ 0.25
151 | LMTL | ≤ 0.25
152 | SGHL | 0.955
153 | HRKI | ≤ 0.25
154 | VAPQ | ≤ 0.25
155 | FMIS | ≤ 0.25
156 | SDEL | ≤ 0.25
157 | DMCN | ≤ 0.25
158 | HYMF | ≤ 0.25
159 | DKLF | ≤ 0.25
160 | HAWT | ≤ 0.25
161 | HERT | ≤ 0.25
162 | ELTY | ≤ 0.25
163 | KLIP | ≤ 0.25
164 | FQWH | ≤ 0.25
165 | VNGW | ≤ 0.25
166 | KHDD | ≤ 0.25
167 | SWMQ | ≤ 0.25
168 | ACTG | ≤ 0.25

Row | Variant | enrichment ratio
169 | YVST | ≤ 0.25
170 | FYSD | ≤ 0.25
171 | TFHR | ≤ 0.25
172 | ADAQ | ≤ 0.25
173 | RFFM | ≤ 0.25
174 | YFII | ≤ 0.25
175 | IGTV | ≤ 0.25
176 | KAAC | ≤ 0.25
177 | AGQV | ≤ 0.25
178 | KHDP | ≤ 0.25
179 | IAQQ | ≤ 0.25
180 | TNHT | ≤ 0.25
181 | CYYY | ≤ 0.25
182 | WDYN | ≤ 0.25
183 | LFHM | ≤ 0.25
184 | FCYE | ≤ 0.25
185 | GWFG | ≤ 0.25
186 | EIHD | ≤ 0.25
187 | PIIE | ≤ 0.25
188 | AAPN | ≤ 0.25
189 | IELH | ≤ 0.25
190 | FGKM | ≤ 0.25
191 | IMLC | ≤ 0.25
192 | FHER | ≤ 0.25

Row | Variant | enrichment ratio
193 | DWYW | ≤ 0.25
194 | QFMF | ≤ 0.25
195 | FRAI | ≤ 0.25
196 | DIET | ≤ 0.25
197 | IEYV | ≤ 0.25
198 | QIWR | 10.3
199 | NVYM | ≤ 0.25
200 | NSHY | ≤ 0.25
201 | WDSW | ≤ 0.25
202 | DWAW | ≤ 0.25
203 | NKVD | 0.422
204 | ITLH | ≤ 0.25
205 | PRQL | ≤ 0.25
206 | RIPK | ≤ 0.25
207 | DRGL | ≤ 0.25
208 | YGCW | ≤ 0.25
209 | YDWA | ≤ 0.25
210 | RWMI | ≤ 0.25
211 | LCDH | ≤ 0.25
212 | IDIW | ≤ 0.25
213 | AWQS | ≤ 0.25
214 | GWNN | ≤ 0.25
215 | PNVS | ≤ 0.25
216 | IACK | ≤ 0.25

Row | Variant | enrichment ratio
217 | WTLW | ≤ 0.25
218 | VDTR | ≤ 0.25
219 | LLHM | ≤ 0.25
220 | FTAC | ≤ 0.25
221 | MLST | ≤ 0.25
222 | SLQD | ≤ 0.25
223 | RSQT | ≤ 0.25
224 | EQIL | ≤ 0.25
225 | EDQD | ≤ 0.25
226 | TQCD | 29.3
227 | LQCG | ≤ 0.25
228 | IHFW | ≤ 0.25
229 | TQNT | 15.4
230 | KMDI | ≤ 0.25
231 | YCRY | ≤ 0.25
232 | RYEM | ≤ 0.25
233 | WNKI | ≤ 0.25
234 | SGFY | 7.06
235 | MGHC | ≤ 0.25
236 | RKAM | ≤ 0.25
237 | GGDR | ≤ 0.25
238 | SWLW | ≤ 0.25
239 | QVMP | ≤ 0.25
240 | VMIY | ≤ 0.25

Row | Variant | enrichment ratio
241 | RLLD | ≤ 0.25
242 | GCIQ | 1.14
243 | LLCT | ≤ 0.25
244 | PAGL | ≤ 0.25
245 | QSGW | ≤ 0.25
246 | PSLF | ≤ 0.25
247 | NIDD | ≤ 0.25
248 | QNPK | ≤ 0.25
249 | PFLK | ≤ 0.25
250 | DVYI | ≤ 0.25
251 | ESQD | ≤ 0.25
252 | GVII | 3.16
253 | IKTH | ≤ 0.25
254 | SPAW | ≤ 0.25
255 | IEIR | ≤ 0.25
256 | PPIL | ≤ 0.25
257 | IEKR | ≤ 0.25
258 | PMTP | ≤ 0.25
259 | PLWL | ≤ 0.25
260 | LKPP | ≤ 0.25
261 | QLWP | ≤ 0.25
262 | RRGN | ≤ 0.25
263 | AQVT | 5.76
264 | WGCD | ≤ 0.25

Row | Variant | enrichment ratio
265 | VIKW | ≤ 0.25
266 | RTVM | ≤ 0.25
267 | GDWI | ≤ 0.25
268 | KSAT | ≤ 0.25
269 | QQGE | ≤ 0.25
270 | QLSQ | 0.294
271 | KSRQ | ≤ 0.25
272 | GQKP | ≤ 0.25
273 | FMRY | ≤ 0.25
274 | RPRC | ≤ 0.25
275 | WRRV | ≤ 0.25
276 | QNLK | ≤ 0.25
277 | TWWH | ≤ 0.25
278 | HKYV | ≤ 0.25
279 | WPLF | ≤ 0.25
280 | TCGS | 6.19
281 | EAAR | ≤ 0.25
282 | YGHL | ≤ 0.25
283 | ISEI | ≤ 0.25
284 | RIPF | ≤ 0.25
285 | IFVY | ≤ 0.25
286 | VDEL | ≤ 0.25
287 | FCTA | ≤ 0.25
288 | WMQI | ≤ 0.25

Row | Variant | enrichment ratio
289 | KIDA | ≤ 0.25
290 | EKHF | ≤ 0.25
291 | QRLD | ≤ 0.25
292 | SNIE | ≤ 0.25
293 | VVSV | ≤ 0.25
294 | RQKL | ≤ 0.25
295 | MLEH | ≤ 0.25
296 | WVCR | ≤ 0.25
297 | VPMI | ≤ 0.25
298 | EYVF | ≤ 0.25
299 | HQKP | ≤ 0.25
300 | SCQQ | ≤ 0.25
301 | QMMW | ≤ 0.25
302 | DYFI | ≤ 0.25
303 | HPID | ≤ 0.25
304 | LREC | ≤ 0.25
305 | YHSI | ≤ 0.25
306 | CFIH | ≤ 0.25
